Measured values published in the supplement of paper PMC11417369.
± gives the standard deviation of the averaged measurements. The list shows a part of the results.

test system: PfAP2-LT AP2 domain (GST-tagged); assay: gcPBM binding intensity (ln(normalized median fluorescence intensity)); higher = stronger DNA binding
In short: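 The binding buffer was 1× PBS containing 1% milk, 0.2 mg/ml BSA, 0.5% salmon testes DNA and 0.03% Triton X-100. In it, GST-tagged P. falciparum DNA-binding domains expressed in E. coli were applied for 1 h to an Agilent 4 × 180k array of primer-extended double-stranded 36-bp intergenic genomic probes plus negative controls. Binding intensity, read with Alexa488 anti-GST antibody and a 488 nm scan, is the highest Masliner-normalised natural-log median intensity across replicate spots of either probe orientation.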

| Sequence | gcPBM binding intensity (ln) |
| --- | --- |
| TAATAAAGTGAATAATGTACATTTTATTTATTATAT [XGTACX_site6614] | 8.62 ± 0.45 |
| ATTATATATCCCTATTCACACATGTATTATATAAAT [CACACA_site5486] | 8.91 ± 0.47 |
| CTAATATCTGTATGCACACACAATAAATACATATTT [CACACA_site5797] | 9.25 ± 0.34 |
| ATAAATAAATAAATAAATAAATAAATAAATATATAT [CACACA_negctrl_site1728] | 8.74 ± 0.49 |
| TCTTTTTCTTGACGAGTGCAAAAATTGTGTTTGAAA | 8.48 ± 0.35 |
| ATTTATTTTATATGTTGTACAAACATTTTAAAACAT [XGTACX_site6919] | 8.69 ± 0.43 |
| AATGCCTTGTTGAGGTGTACTGAATGTTATTTTAAT [XGTACX_site3255] | 8.68 ± 0.43 |
| TTTTTTTAAAGAATTATCATAAAATGATTGCATCAT [XGTACX_negctrl_site141] | 8.3 ± 0.53 |
| TTAACATATTTGTTAGTGCATTTTGATATTACACAT [GTGCAC_site9978] | 8.88 ± 0.48 |
| AAAAAAATTAAATGTACACACACCTTAAACAATGTC [CACACA_site1855] | 9.16 ± 0.3 |
| TTATTCTAGTAGTGTGTGCGCATGGACAATGCAATA | 9.27 ± 0.33 |
| ATACATATAATATATGCATGTACCAATCAAATATAT [TGCATGCA_site192] | 8.89 ± 0.5 |
| TATATATCGTTATATACACACATGTATATAAAAAAT [CACACA_site7501] | 9.04 ± 0.4 |
| TAATTTTTTTTTATGATACACACTTGGATAATTAAA [CACACA_site562] | 8.37 ± 0.33 |
| TTATTATATATTTTATTTATTAATAGTATATATTAT [TGCATGCA_negctrl_site155] | 8.46 ± 0.54 |
| ATATTTTATTTATATACACACACATATATATATTAT [CACACA_site8177] | 9.43 ± 0.35 |
| TTCTTTATATACAAACCAAAATATTATGTATAATAA [CACACA_negctrl_site15] | 8.29 ± 0.33 |
| CTTTATATAAAATAAAGTACATAAATTATGATATAT [XGTACX_site3699] | 8.51 ± 0.42 |
| TGTAATGTTTACAACACACAAATTAGAAATACAAAA [CACACA_site6924] | 8.8 ± 0.44 |

| Sequence | gcPBM binding intensity (ln) |
| --- | --- |
| AAGGAAGATATATACACACATACAAATATATATATA [CACACA_site2181] | 9.39 ± 0.32 |
| ACATATTTAAAAACATGTACAAATATATTTATAATT [XGTACX_site661] | 8.71 ± 0.42 |
| TTGTGTTTTATTATTTTATTATTACTATTATAATGT [GTGCAC_negctrl_site484] | 8.9 ± 0.46 |
| ATAAAACATAAATACATACACACATAATATATATTA [CACACA_site110] | 9.26 ± 0.42 |
| TAAAAATGGGTATGTACACACTTTATTTTTAATACA [CACACA_site5404] | 8.76 ± 0.36 |
| TATAAACATAAATATACACACAAACATATATGTATT [CACACA_site8324] | 9.11 ± 0.35 |
| CGTTTCCCCAATGGTTGTACAATATATATATATATA [XGTACX_site8641] | 9.33 ± 0.28 |
| AGACATATAATATATACACACATATATATATATATA [CACACA_site1066] | 9.93 ± 0.085 |
| TTATTTATAATGTTGTGTACATATATGAATATACCA [XGTACX_site3111] | 8.72 ± 0.41 |
| AAGAAAAAATAAAGCACACAAATATTTTAAAAACAC [CACACA_site3325] | 9.06 ± 0.53 |
| GATATATATACATGTGTGCACCATGCAACTTGTTTT | 9.28 ± 0.46 |
| TTTTTTCAATTGGAAATTATTTTACAATGAAGGGTA [XGTACX_negctrl_site469] | 8.19 ± 0.35 |
| TATTTTACGTATTGTTGTACTTGAAACAAATATACA [XGTACX_site8778] | 8.6 ± 0.3 |
| AATACATAAAAATAAAAATAAAATATAACTAATATG [CACACA_negctrl_site186] | 8.71 ± 0.57 |
| TTATACATATATTTAACACACATTTTATAAAGTGCC [CACACA_site1314] | 8.87 ± 0.38 |
| AATCGATAAAATGTTGTGCACATATTTTTATATTTA [GTGCAC_site9651] | 8.8 ± 0.35 |
| AAAACTATAATGAATAGTACATAAAAATGGATATAT [XGTACX_site6056] | 9.07 ± 0.52 |
| TTTTGACATTAATTACTATAGTGTTCTTATAAAATT [TGCATGCA_negctrl_site589] | 8.57 ± 0.47 |
| CATTTTATTTTAATATGTACTTAAAGAAAAAAAATT [XGTACX_site7670] | 8.1 ± 0.24 |

| Sequence | gcPBM binding intensity (ln) |
| --- | --- |
| AATATGTATCCATACACACATACATTTTATTTGCAA [CACACA_site874] | 9.03 ± 0.39 |
| TTTTATTTATTATTTACACACACGTAGGTGTCCATA [CACACA_site430] | 9.51 ± 0.4 |
| TTAAATTACTAATGTGCACACATACTAACGTTTAAA [CACACA_site3573] | 9.04 ± 0.37 |
| TATCTTATTTTATCTCGTACATAAAATTAAAAAATT [XGTACX_site3636] | 8.2 ± 0.46 |
| TTATATTTTTTAATTACACACAATTCTTATAAATAT [CACACA_site7870] | 8.66 ± 0.44 |
| TATTATAACTAAAAAAATCACATAAAATACTTTATT [CACACA_negctrl_site2] | 8.29 ± 0.46 |
| TTAACCTTTATATAATACGTATCATCCTCATATATA [CACACA_negctrl_site86] | 8.84 ± 0.52 |
| TGTATATATTTGTGCACACCAAAGTTTGATTTTATT [CACACA_site1860] | 9.3 ± 0.42 |
| ATATAAAATCAACAAAAAAAAAAAATATATATATAT [XGTACX_negctrl_site251] | 9.07 ± 0.25 |
| ATATATAATATATGATGTACTTAATAATTTTTTTTT [XGTACX_site5715] | 8.46 ± 0.47 |
| TTAAGGATCCACGATACACACATATCATTCAACAAA [CACACA_site1924] | 8.96 ± 0.42 |
| TAATAATCCACAAGCACACACACACCCATATATATA [CACACA_site1267] | 9.96 ± 0.13 |
| AATATTTGCCTATGTTGTACTGACATTTTTTTAAGT [XGTACX_site6836] | 8.94 ± 0.46 |
| TATATACACATGCGCACACACAAGTGGGAAATTTGG [CACACA_site6930] | 9.57 ± 0.5 |
| TATAATCATAAATACACACACATATATATATATATA [CACACA_site5224] | 9.865 ± 0.0071 |
| TTCTCATCCTTACATACACACACATATATATATATA [CACACA_site7914] | 9.52 ± 0.13 |
| GTTCAATTATTTTTATGTACATATATTTTTTTCTTT [XGTACX_site2505] | 9.04 ± 0.58 |
| AAATTGGGGCTTGTTACACACTTAGTGTGAGTTCTA [CACACA_site6417] | 9.15 ± 0.23 |
| ATTTATAATATGTATACACACACATATATAAATATA [CACACA_site8729] | 9.09 ± 0.34 |
